Measured values published in a compilation of properties of binary mixtures (doi:10.1016/j.molliq.2018.08.031).
Some of these densities may be calculated back from excess volumes.

Experiment: xn = mol fraction of the nth substance listed
Settings: 100 kPa

COCCOCCOC + CCCC[n+]1ccn(C)c1.F[P-](F)(F)(F)(F)F
Settings | mass density [kg/m3]
283.15 K, x2 = 0.0571 | 995.4
283.15 K, x2 = 0.1013 | 1024.9
283.15 K, x2 = 0.2923 | 1132
283.15 K, x2 = 0.39 | 1177.2
283.15 K, x2 = 0.492 | 1219.3
283.15 K, x2 = 0.6827 | 1287.2
283.15 K, x2 = 0.9711 | 1371.7
293.15 K, x2 = 0.057 | 985.7
293.15 K, x2 = 0.1842 | 1065.5
293.15 K, x2 = 0.1982 | 1073.5
293.15 K, x2 = 0.2963 | 1124.8
293.15 K, x2 = 0.3149 | 1133.8
293.15 K, x2 = 0.3913 | 1168.8
293.15 K, x2 = 0.5865 | 1246
293.15 K, x2 = 0.5999 | 1250.8
293.15 K, x2 = 0.6644 | 1272.8
293.15 K, x2 = 0.6814 | 1278.5
293.15 K, x2 = 0.7968 | 1314.5
293.15 K, x2 = 0.8399 | 1327.4
293.15 K, x2 = 0.892 | 1342.1
303.15 K, x2 = 0.0995 | 1005
303.15 K, x2 = 0.1154 | 1015.2
303.15 K, x2 = 0.1958 | 1062.8
303.15 K, x2 = 0.1973 | 1063.9
303.15 K, x2 = 0.2994 | 1117.2
303.15 K, x2 = 0.4896 | 1200.7
303.15 K, x2 = 0.5893 | 1238.2
303.15 K, x2 = 0.6652 | 1264.5
303.15 K, x2 = 0.6884 | 1272.3
303.15 K, x2 = 0.8299 | 1316.1
303.15 K, x2 = 0.8923 | 1334
303.15 K, x2 = 0.9352 | 1345.1
303.15 K, x2 = 0.9596 | 1352.5
313.15 K, x2 = 0.057 | 967.4
313.15 K, x2 = 0.0943 | 992.4
313.15 K, x2 = 0.1995 | 1056
313.15 K, x2 = 0.2856 | 1101.2
313.15 K, x2 = 0.4877 | 1191.1
313.15 K, x2 = 0.6781 | 1260.3
313.15 K, x2 = 0.7994 | 1298.6
313.15 K, x2 = 0.8941 | 1325.9
313.15 K, x2 = 0.9553 | 1342.4
